Data: the supplement of paper PMC12217912
The other results are listed elsewhere or left out. Sequences were assembled here from the parent chain. Inactive controls read about 0.05.

B1: TEV protease; numbered along this chain (parent)
chain: MGESLFKGPRDYNPISSSICHLTNESDGHTTSLYGIGFGPFIITNKHLFRRNNGTLVVQSLHGVFKVKDTTTLQQHLVDGRDMIIIRMPKDFPPFPQKLKFREPQREERICLVTTNFQTKSMSSMVSDTSCTFPSGDGIFWKHWIQTKDGQCGSPLVSTRDGFIVGIHSASNFTNTNNYFTSVPKNFMELLTNQEAQQWVSGWRLNADSVLWGGHKVFMVKPEEPFQPVKEATQL

Variants of: B1
Experiment: raw area under fraction-flipped curve 0-4 h after induction (AUC4h, not background-subtracted), DNA-recorder readout of cleavage of the substrate (dimensionless); higher = more cleavage of the substrate by the protease variant
Conditions: temperature: 34 °C; time window: 0-4 h after rhamnose induction
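Further: Bxb1 expression induced with 0.2% (w/v) L-rhamnose at OD600 near 0.5, cultures sampled hourly, flipped fraction per protease–substrate barcode pair counted by paired-end Illumina sequencing.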

| Variant | area with substrate EELYFQS | area with substrate EGLYFQS | area with substrate EHLYFQS | area with substrate EILYFQS | area with substrate EKLYFQS | area with substrate EMLYFQS | area with substrate EPLYFQS | area with substrate EQLYFQS | area with substrate ERLYFQS | area with substrate ESLYFQS |
| --- | --- | --- | --- | --- | --- | --- | --- | --- | --- | --- |
| MGESLFKGPRDYNPISSSICHLTNESDGHTTSLYGIGFGPFIITNKHLFRRNNGTLVVQSLHGVFKVKDTTTLQQHLVDGRDMIIIRMPKDFPPFPQKLKFREPQREETICLVTTNFQTKSMSSMVSDTSCTFPSGDGIFWKHWIQTKDGQCGSPLVSTRDGFIVGIHSASNFTNTNNYFTSVPKNFMELLTNQEAQQWVSGWRLNADSVLWGGHKVFMVKPEEPFQPVKEATQL [R109T] | 0.124 | 0.091 | 0.112 | 0.102 | 0.0991 | 0.122 | 0.108 | 0.111 | 0.184 | 0.11 |
| MGESLFKGPRDYNPISSSICHLTNESDGHTTSLYGIGFGPFIITNKHLFRRNNGTLIVQSLHGVFKVKDTTTLQQHLVDGRDMIIIRMPKDFPPFPQKLKFREPQREERICLVTTNFQTKSMSSMVSDTSCTFPSGDGIFWKHWIQTKDGQCGSPLVSTRDGFIVGIHSASNFTNTNNYFTSVPKNFMELLTNQEAQQWVSGWRLNADSVLWGGHKVFMVKPEEPFQPVKEATQL [V57I] | 0.141 |  |  | 0.113 | 0.096 |  |  | 0.111 |  | 0.0895 |
| MGESLFKGPRDYNPISSSICHLTNESDGHTTSLYGIGFGPFIITNKHLFRRNNGTLVVQSLHGVFKVKDTTTLQQHLVDGRDMIIIRMPKDFPPFPQKLKFREPQREERICLVTTNFQTKSMSSMVSDTSCTFPSGDYIFWKHWIQTKDGQCGSPLVSTRDGFIVGIHSASNFTNTNNYFTSVPKNFMELLTNQEAQQWVSGWRLNADSVLWGGHKVFMVKPEEPFQPVKEATQL [G138Y] | 0.049 |  |  |  | 0.0936 |  | 0.118 | 0.093 |  | 0.0982 |
| MGESLFKGPRDYNPISSSICHLTNESDGHTTSLYGIGFGPFIITNKHLFRRNNGTLVVQSLHGVFKVKDTTTLQQHLVDGRDMIIIRMPKDFPPFPQKLKFREPQREERICLVTTNFQTKSMSSMVSDTSCTFPSGDGIFWKHWIQTKDGQCGSPLVSTRDGFIVGIHSASNFTNTNNYFTSVPKRFMELLTNQEAQQWVSGWRLNADSVLWGGHKVFMVKPEEPFQPVKEATQL [N186R] | 0.148 |  |  |  |  | 0.136 |  |  |  | 0.105 |
| MGDSLFKGPRDYNPISSSICHLTNESDGHTTSLYGIGFGPFIITNKHLFRRNNGTLVVQSLHGVFKVKDTTTLQQHLVDGRDMIIIRMPKDFPPFPQKLKFREPQREERICLVTTNFQTKSMSSMVSDTSCTFPSGDGIFWKHWIQTKDGQCGSPLVSTRDGFIVGIHSASNFTNTNNYFTSVPKNFMELLTNQEAQQWVSGWRLNADSVLWGGHKVFMVKPEEPFQPVKEATQL [E3D] | 0.13 | 0.103 |  | 0.131 | 0.128 | 0.15 | 0.165 | 0.128 | 0.0996 |  |
| MGESLFKGPRDYNPISSSICHLTNESDGHTTSLYGIGFGPFIITNKHLFRRNNGTLVVQSLHGVFKVKDTTTLQQHLVDGRDMIIIRMPKDFPPLPQKLKFREPQREERICLVTTNFQTKSMSSMVSDTSCTFPSGDGIFWKHWIQTKDGQCGSPLVSTRDGFIVGIHSASNFTNTNNYFTSVPKNFMELLTNQEAQQWVSGWRLNADSVLWGGHKVFMVKPEEPFQPVKEATQL [F95L] | 0.109 |  |  |  |  |  |  | 0.107 | 0.0243 |  |
| MGESLFKGPRDYNPISSSICHLTNESDGHTTSLYGIGFGPFIITNKHLFRRNNGTLVVQSLHGVFKVKDTTTLQQHLVDGRDMIIIRMPKDFPPFPQKLKFREPQREERICLVTTNFQTKSMSSMVSDTSCTFPSGDGIFWKHWIQTKDGQCGSPLVSTRDGFIVGIHSASNFTNTNNYFTSVPKNFMELLTNQEAQQWVHGWRLNADSVLWGGHKVFMVKPEEPFQPVKEATQL [S201H] | 0.076 |  |  |  |  |  |  | 0.109 |  |  |
| MGESLFKGPRDYNPISSSICHLTNESDGHTTSLYGIGFGPFIITNKHLFRRNNGTLVVQSLHGVFKVKDTTTLIQHLVDGRDMIIIRMPKDFPPFPQKLKFREPQREERICLVTTNFQTKSMSSMVSDTSCTFPSGDGIFWKHWIQTKDGQCGSPLVSTRDGFIVGIHSASNFTNTNNYFTSVPKNFMELLTNQEAQQWVSGWRLNADSVLWGGHKVFMVKPEEPFQPVKEATQL [Q74I] | 0.0976 |  |  |  |  |  | 0.0927 | 0.0751 | 0.0915 |  |
| MGESLFKGPRDYNPISSSICHLTNESDGHTTSLYGIGFGPFIITNKHLFRRNNGTLVVQSLHGVFKVKDTTTLQQHLVDGRDMIIIRMPKDFPPFPQKLKFREPQREERICLVTTNFQTKSMSSMVSDTSCTFPSGDGIFWKHWIQTKDGQCGSPLVSTRDGFIVGIHSASNFTNTNNYFTSVPKNFMELLTNQEAQQWVSGWRLNADSVLAGGHKVFMVKPEEPFQPVKEATQL [W212A] | 0.0974 |  |  |  |  |  | 0.112 |  |  | 0.111 |
| MGESLFKGPRDYNPISSSICHLTNESDGHTTSLYGIGFGPFIITNKHLFRRNNGTLVVQSLHGVFKVKDTTTLQQHLVDGRDMIIIRMPKDFPPFPCKLKFREPQREERICLVTTNFQTKSMSSMVSDTSCTFPSGDGIFWKHWIQTKDGQCGSPLVSTRDGFIVGIHSASNFTNTNNYFTSVPKNFMELLTNQEAQQWVSGWRLNADSVLWGGHKVFMVKPEEPFQPVKEATQL [Q97C] | 0.123 |  |  |  |  | 0.119 |  |  |  |  |
| MGESLFKGPRDYNPISSSICHLTNESDGHTTSLYGIGFGPFIITNKHLFRRNNGTLVVQSLHGVFKVKDTTTLQQHLVDGRDMIIIRMPKDFPPFPQKLKFREPQREERICLVTTNFQTKSMSSMVSDTSCTFPSGDGIFWKHWIQTKDGQCGSPLVSTRDGFIVGIHSASNFTNTNNYFTSVPKNFMELLTNQHAQQWVSGWRLNADSVLWGGHKVFMVKPEEPFQPVKEATQL [E195H] | 0.0931 | 0.0984 |  |  | 0.109 | 0.117 |  |  | 0.1 |  |

Same assay, conditions: temperature: 34 °C; time window: 0-4 h after rhamnose induction

| Variant | area with substrate EVLYFQS | area with substrate EFLYFQS | area with substrate ELLYFQS | area with substrate ETLYFQS | area with substrate EYLYFQS | area with substrate EWLYFQS |
| --- | --- | --- | --- | --- | --- | --- |
| MGESLFKGPRDYNPISSSICHLTNESDGHTTSLYGIGFGPFIITNKHLFRRNNGTLVVQSLHGVFKVKDTTTLQQHLVDGRDMIIIRMPKDFPPFPQKLKFREPQREETICLVTTNFQTKSMSSMVSDTSCTFPSGDGIFWKHWIQTKDGQCGSPLVSTRDGFIVGIHSASNFTNTNNYFTSVPKNFMELLTNQEAQQWVSGWRLNADSVLWGGHKVFMVKPEEPFQPVKEATQL [R109T] | 0.104 |  |  |  |  |  |
| MGESLFKGPRDYNPISSSICHLTNESDGHTTSLYGIGFGPFIITNKHLFRRNNGTLVVQSLHGVFKVKDTTTLQQHLVDGRDMIIIRMPKDFPPFPQKLKFREPQREERICLVTTNFQTKSMSSMVSDTSCTFPSGDYIFWKHWIQTKDGQCGSPLVSTRDGFIVGIHSASNFTNTNNYFTSVPKNFMELLTNQEAQQWVSGWRLNADSVLWGGHKVFMVKPEEPFQPVKEATQL [G138Y] | 0.0849 | 0.102 | 0.0885 | 0.103 | 0.123 |  |
| MGDSLFKGPRDYNPISSSICHLTNESDGHTTSLYGIGFGPFIITNKHLFRRNNGTLVVQSLHGVFKVKDTTTLQQHLVDGRDMIIIRMPKDFPPFPQKLKFREPQREERICLVTTNFQTKSMSSMVSDTSCTFPSGDGIFWKHWIQTKDGQCGSPLVSTRDGFIVGIHSASNFTNTNNYFTSVPKNFMELLTNQEAQQWVSGWRLNADSVLWGGHKVFMVKPEEPFQPVKEATQL [E3D] |  |  | 0.112 |  |  | 0.129 |
| MGESLFKGPRDYNPISSSICHLTNESDGHTTSLYGIGFGPFIITNKHLFRRNNGTLVVQSLHGVFKVKDTTTLQQHLVDGRDMIIIRMPKDFPPFPQKLKFREPQREERICLVTTNFQTKSMSSMVSDTSCTFPSGDGIFWKHWIQTKDGQCGSPLVSTRDGFIVGIHSASNFTNTNNYFTSVPKNFMELLTNQEAQQWVHGWRLNADSVLWGGHKVFMVKPEEPFQPVKEATQL [S201H] |  |  | 0.0551 |  |  |  |
| MGESLFKGPRDYNPISSSICHLTNESDGHTTSLYGIGFGPFIITNKHLFRRNNGTLVVQSLHGVFKVKDTTTLIQHLVDGRDMIIIRMPKDFPPFPQKLKFREPQREERICLVTTNFQTKSMSSMVSDTSCTFPSGDGIFWKHWIQTKDGQCGSPLVSTRDGFIVGIHSASNFTNTNNYFTSVPKNFMELLTNQEAQQWVSGWRLNADSVLWGGHKVFMVKPEEPFQPVKEATQL [Q74I] |  |  |  |  | 0.0777 | 0.0902 |
| MGESLFKGPRDYNPISSSICHLTNESDGHTTSLYGIGFGPFIITNKHLFRRNNGTLVVQSLHGVFKVKDTTTLQQHLVDGRDMIIIRMPKDFPPFPQKLKFREPQREERICLVTTNFQTKSMSSMVSDTSCTFPSGDGIFWKHWIQTKDGQCGSPLVSTRDGFIVGIHSASNFTNTNNYFTSVPKNFMELLTNQEAQQWVSGWRLNADSVLAGGHKVFMVKPEEPFQPVKEATQL [W212A] |  |  | 0.0769 |  |  |  |
| MGESLFKGPRDYNPISSSICHLTNESDGHTTSLYGIGFGPFIITNKHLFRRNNGTLVVQSLHGVFKVKDTTTLQQHLVDGRDMIIIRMPKDFPPFPQKLKFREPQREERICLVTTNFQTKSMSSMVSDTSCTFPSGDGIFWKHWIQTKDGQCGSPLVSTRDGFIVGIHSASNFTNTNNYFTSVPKNFMELLTNQHAQQWVSGWRLNADSVLWGGHKVFMVKPEEPFQPVKEATQL [E195H] | 0.11 |  | 0.0781 | 0.0937 |  |  |
